Normalised cell viability data for 34 compounds are collected here from the supplement of paper PMC6609913.

Counter-ions that a name gives are not always drawn. ± gives the standard deviation of the averaged measurements. Whole data set: some 1,300 compounds, median “normalised cell viability” near 1, cut for the lowest 2% near 0.14. The list shows a part of the results.

In this experiment the test system is V-C8 (BRCA2-deficient hamster cells). The experiment is described as follows: normalised cell viability (fraction of plate median); higher = more viable cells (less toxic). Conditions: 5 µM. The method in brief:
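BRCA2-deficient hamster V-C8 cells and BRCA2-restored V-C8 cells were plated in 96-well plates, and library drugs were added 24 h later at 5 μM in 100 μl medium. Exposure lasted 3 days in screen 1 and 6 days in screen 2, next to solvent-only wells. Viability was then read by resazurin assay, median-plate normalised and averaged across triplicate wells.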

On to `COc1ccc2[nH]c([S+]([O-])Cc3ncc(C)c(OC)c3C)nc2c1` (stereo not drawn) [Omeprazole], for which the normalised cell viability (treatment time: 3 days) amounted to 0.982 ± 0.039 and the normalised cell viability (treatment time: 6 days) worked out at 0.945 ± 0.029.
For `CC(=O)Nc1ccc(O)cc1` [Acetaminophen], in that order: 0.978 ± 0.032 and 1.02 ± 0.033.
On the same counts, the results for `CO/N=C(\C(=O)N[C@@H]1C(=O)N2C(C(=O)O)=C(C[N+]3(C)CCCC3)CS[C@H]12)c1csc(N)n1` [Cefepime hydrochloride] are 0.863 ± 0.17 and 0.934 ± 0.037.
On the same counts, the results for `CCOC(=O)[C@H](CCc1ccccc1)N[C@@H](C)C(=O)N1CCC[C@H]1C(=O)O` [Enalapril maleate] are 0.941 ± 0.063 and 0.959 ± 0.044.
As for `CC(Oc1c(Cl)cccc1Cl)C1=NCCN1` (stereo not drawn) [Lofexidine], the normalised cell viability reads like this: (treatment time: 3 days) 0.775 ± 0.017; (treatment time: 6 days) 0.855 ± 0.045.
`CC1=C(CC(=O)O)c2cc(F)ccc2/C1=C\c1ccc([S+](C)[O-])cc1` (stereo not drawn) [Sulindac]: the normalised cell viability is 0.929 ± 0.041 (treatment time: 3 days) and 0.976 ± 0.052 (treatment time: 6 days).
On the same counts, the results for `CCc1cccc2c3c([nH]c12)C(CC)(CC(=O)O)OCC3` (stereo not drawn) [Etodolac] are 1.03 ± 0.12 and 0.957 ± 0.029.
On the same counts, the results for `Cc1noc(NS(=O)(=O)c2ccc(N)cc2)c1C` [Sulfisoxazole] are 1.1 ± 0.043 and 0.999 ± 0.021.
For `CC[N+](CC)(CC)CCC(O)(c1ccccc1)C1CCCCC1` (stereo not drawn) [Tridihexethyl chloride], in that order: 0.939 ± 0.08 and 1.05 ± 0.071.
With `CN(C)CCCO[C@@H]1[C@H]2OC(C)(C)O[C@H]2O[C@@H]1[C@H](O)CO` [Amiprilose hydrochloride], the normalised cell viability was found to be 0.996 ± 0.049 (treatment time: 3 days) and 1.07 ± 0.082 (treatment time: 6 days).
For the compound `C[C@]12CC[C@@H]3c4ccc(O)cc4CC[C@H]3[C@@H]1C[C@@H](O)[C@@H]2O` [Estriol], the normalised cell viability amounted to 0.999 ± 0.034 (treatment time: 3 days) and 1.01 ± 0.065 (treatment time: 6 days).
On the same counts, the results for `CN1CCC(=C2c3ccccc3CCc3sccc32)CC1` [Pizotifen malate] are 1.06 ± 0.044 and 0.967 ± 0.043.
On the same counts, the results for `CN1CCOC(c2ccccc2)c2ccccc2C1` (stereo not drawn) [Nefopam hydrochloride] are 1.02 ± 0.099 and 1.03 ± 0.053.
For `CN(C)[C@@H]1C(O)=C(C(=O)NCNCCCC[C@H](N)C(=O)O)C(=O)[C@@]2(O)C(O)=C3C(=O)c4c(O)cccc4[C@@](C)(O)[C@H]3C[C@@H]12` [Lymecycline], in that order: 1.01 ± 0.039 and 1.01 ± 0.089.
On to `CCCCNc1ccc(C(=O)OCCN(C)C)cc1`, for which the normalised cell viability reads like this: (treatment time: 3 days) 1.03 ± 0.025; (treatment time: 6 days) 1.1 ± 0.061.
Compound `CCN(CC)CCOc1ccc(C(=C(Cl)c2ccccc2)c2ccccc2)cc1` [Clomiphene citrate (Z,E)] came in with a normalised cell viability (treatment time: 3 days) of 0.142 ± 0.002 and a normalised cell viability (treatment time: 6 days) of 0.118 ± 0.011.
In the case of `CC(O)(P(=O)(O)O)P(=O)(O)O` [Etidronic acid, disodium salt], the normalised cell viability reads like this: (treatment time: 3 days) 1.03 ± 0.024; (treatment time: 6 days) 1.05 ± 0.046.
On the same counts, the results for `COc1ccccc1N1CCN(CCCCNC(=O)c2ccc3ccccc3c2)CC1` are 0.971 ± 0.042 and 1.02 ± 0.095.
Take `CCC1NC(=O)c2cc(S(N)(=O)=O)c(Cl)cc2N1` (stereo not drawn) [Quinethazone]: the normalised cell viability turned out to be 0.937 ± 0.096 (treatment time: 3 days) and 1 ± 0.077 (treatment time: 6 days).
For the compound `O=C1[C@H](CC[C@H](O)c2ccc(F)cc2)[C@@H](c2ccc(O)cc2)N1c1ccc(F)cc1` [Ezetimibe], the normalised cell viability runs as follows: (treatment time: 3 days) 1.02 ± 0.093; (treatment time: 6 days) 1.03 ± 0.022.
For `Cc1cnc(C(=O)NCCc2ccc(S(=O)(=O)NC(=O)NC3CCCCC3)cc2)cn1` [Glipizide], in that order: 1.093 ± 0.0089 and 1.13 ± 0.034.
For `CN1CCN(c2c(F)cc3c(=O)c(C(=O)O)cn4c3c2SCC4)CC1` [Rufloxacin], in that order: 0.987 ± 0.017 and 0.955 ± 0.077.
With `COC(=O)C1=C(C)NC(C)=C(C(=O)OCCN(C)Cc2ccccc2)C1c1cccc([N+](=O)[O-])c1` (stereo not drawn) [Nicardipine hydrochloride], the normalised cell viability is, setting by setting: (treatment time: 3 days) 0.285 ± 0.024; (treatment time: 6 days) 0.366 ± 0.034.
For `COC(=O)C1=C(C)NC(C)=C(C(=O)OCC(C)C)C1c1ccccc1[N+](=O)[O-]` (stereo not drawn) [Nisoldipine], the normalised cell viability runs as follows: (treatment time: 3 days) 0.889 ± 0.059; (treatment time: 6 days) 0.894 ± 0.019.
On the same counts, the results for `CN(C)CCOC(c1ccc(Cl)cc1)c1ccccn1` (stereo not drawn) [Carbinoxamine maleate salt] are 0.976 ± 0.014 and 0.997 ± 0.013.
Take `O=C1CCc2ccc(OCCCCN3CCN(c4cccc(Cl)c4Cl)CC3)cc2N1` [Aripiprazole]: the normalised cell viability by setting is: (treatment time: 3 days) 0.405 ± 0.12; (treatment time: 6 days) 0.242 ± 0.065.
For `NC(=O)NC1NC(=O)NC1=O` (stereo not drawn) [Allantoin], in that order: 1.04 ± 0.015 and 1.02 ± 0.023.
On the same counts, the results for `O=C1C(O)=C([C@H]2CC[C@H](c3ccc(Cl)cc3)CC2)C(=O)c2ccccc21` [Atovaquone] are 0.896 ± 0.025 and 0.9167 ± 0.0055.
For `CC(C)NCC(O)c1ccc(O)c(O)c1` (single isomer, unassigned; (-)) [(-)-Isoproterenol hydrochloride], the normalised cell viability is 1 ± 0.035 (treatment time: 3 days) and 0.952 ± 0.015 (treatment time: 6 days).
For `Cc1ccccc1C(OCCN(C)C)c1ccccc1` (stereo not drawn) [Orphenadrine hydrochloride], in that order: 1.05 ± 0.14 and 0.964 ± 0.14.
For `NS(=O)(=O)c1cc2c(cc1Cl)NC(CC1CCCC1)NS2(=O)=O` (stereo not drawn) [Cyclopenthiazide], in that order: 1.03 ± 0.024 and 1.06 ± 0.052.
On the same counts, the results for `CC(C)(C)NCC(O)c1cc(O)cc(O)c1` (stereo not drawn) [Terbutaline hemisulfate] are 0.156 ± 0.0028 and 0.146 ± 0.026.
With `CC[N+](CC)(CC)CCOc1cccc(OCC[N+](CC)(CC)CC)c1OCC[N+](CC)(CC)CC` [Gallamine triethiodide], the normalised cell viability by setting is: (treatment time: 3 days) 0.986 ± 0.044; (treatment time: 6 days) 1.03 ± 0.033.
On the same counts, the results for `CCOC(=O)[N-]c1c[n+](N2CCOCC2)no1` [Molsidomine] are 1.02 ± 0.097 and 1.07 ± 0.018.
